In the supplement of paper PMC4967469:
By IC50 is meant the dose at which the fit gives 50% viability; a fit beyond the top or the lowest dose is shown as a bound at that dose. AUC sums up the same curve from the lowest dose to the 256-fold higher top dose: 1 means no effect, lower means more sensitive. For part of these data: Any top dose called inferred was derived from the fitted curves, not read from the paper. For part of these data: Drugs with an entry number were screened twice under separate entries, and the two screens often disagree.

Tests used:
Experiment in all cases: Viability of human cancer cell lines after 72 h of drug (GDSC screen)
LFM-A13 = compound: C/C(O)=C(\C#N)C(=O)Nc1cc(Br)ccc1Br [LFM-A13]; settings: top dose 16 µM; top dose inferred
Protocol: (§1)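 Human cancer cell lines in 384-well plates, medium with 10% serum, drug for 72 h over a 256-fold dose range (nine 2-fold or five 4-fold steps up to the top dose). Adherent lines were fixed and stained with the nucleic acid dye Syto60, suspension lines read with resazurin; signal relative to control wells, capped at 0 and 100%. One two-parameter sigmoid per drug and line, fitted in a mixed model over all curves with the slope shared within a line.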

TW-37 = compound: CC(C)c1ccccc1Cc1cc(C(=O)Nc2ccc(S(=O)(=O)c3ccccc3C(C)(C)C)cc2)c(O)c(O)c1O [TW-37]; settings: top dose 5 µM
Protocol: as §1

Bicalutamide = compound: CC(O)(CS(=O)(=O)c1ccc(F)cc1)C(=O)Nc1ccc(C#N)c(C(F)(F)F)c1 [Bicalutamide]; settings: top dose inferred
Protocol: as §1

AUY922 = compound: CCNC(=O)c1noc(-c2cc(C(C)C)c(O)cc2O)c1-c1ccc(CN2CCOCC2)cc1 [AUY922]; settings: top dose 0.256 µM; top dose inferred
Protocol: as §1

KIN001-270 = compound: Cc1ccc(Nc2cc(-c3cccc(N4C(=O)c5ccccc5C4=O)c3)ncn2)cc1NS(C)(=O)=O [KIN001-270]; settings: top dose 20 µM; top dose inferred
Protocol: as §1

Nilotinib = compound: Cc1cn(-c2cc(NC(=O)c3ccc(C)c(Nc4nccc(-c5cccnc5)n4)c3)cc(C(F)(F)F)c2)cn1 [Nilotinib]; settings: top dose 2 µM
Protocol: as §1

GNF-2 = compound: NC(=O)c1cccc(-c2cc(Nc3ccc(OC(F)(F)F)cc3)ncn2)c1 [GNF-2]; settings: top dose 1.28 µM; top dose inferred
Protocol: as §1

Gemcitabine = compound: Nc1ccn([C@@H]2O[C@H](CO)[C@@H](O)C2(F)F)c(=O)n1 [Gemcitabine]; settings: top dose 1.024 µM
Protocol: as §1

T0901317 = compound: O=S(=O)(c1ccccc1)N(CC(F)(F)F)c1ccc(C(O)(C(F)(F)F)C(F)(F)F)cc1 [T0901317]; settings: top dose 10.24 µM; top dose inferred
Protocol: as §1

MP470 = compound: S=C(NCc1ccc2c(c1)OCO2)N1CCN(c2ncnc3c2oc2ccccc23)CC1 [MP470]; settings: top dose 20 µM; top dose inferred
Protocol: as §1

[1] = top dose 1.024 µM, screen: GDSC drug entry 150
[2] = top dose 10 µM, screen: GDSC drug entry 1502

| Cell Line | AUC (LFM-A13) | IC50 (LFM-A13) | AUC (TW-37) | IC50 (TW-37) | AUC (Bicalutamide; [1]) | IC50 (Bicalutamide; [1]) | AUC (Bicalutamide; [2]) | IC50 (Bicalutamide; [2]) | AUC (AUY922) | IC50 (AUY922) | AUC (KIN001-270) | IC50 (KIN001-270) | AUC (Nilotinib) | IC50 (Nilotinib) | AUC (GNF-2) | IC50 (GNF-2) | AUC (Gemcitabine) | IC50 (Gemcitabine) | AUC (T0901317) | IC50 (T0901317) | AUC (MP470) | IC50 (MP470) |
| --- | --- | --- | --- | --- | --- | --- | --- | --- | --- | --- | --- | --- | --- | --- | --- | --- | --- | --- | --- | --- | --- | --- |
| TE-12 (oesophagus, suspension) | 0.953 | > 16 µM | 0.469 | 0.253 µM | 0.983 | > 1.02 µM | 0.974 | > 10 µM | 0.467 | 0.0128 µM | 0.959 | > 20 µM | 0.982 | > 2 µM | 0.95 | > 1.28 µM | 0.878 | > 1.02 µM | 0.951 | > 10.2 µM | 0.889 | > 20 µM |
| TE-15 (oesophagus, suspension) | 0.979 | > 16 µM | 0.64 | 0.805 µM | 0.984 | > 1.02 µM | 0.963 | > 10 µM | 0.375 | 0.00692 µM | 0.941 | > 20 µM | 0.985 | > 2 µM | 0.964 | > 1.28 µM | 0.07 | < 0.004 µM | 0.94 | > 10.2 µM | 0.879 | > 20 µM |
| TGBC1TKB (biliary tract, adherent) | 0.981 | > 16 µM | 0.696 | 1.1 µM | 0.987 | > 1.02 µM | 0.987 | > 10 µM | 0.808 | 0.132 µM | 0.972 | > 20 µM | 0.982 | > 2 µM | 0.938 | > 1.28 µM | 0.864 | 0.89 µM | 0.977 | > 10.2 µM | 0.97 | > 20 µM |
| TGW (neuroblastoma, adherent) | 0.992 | > 16 µM | 0.576 | 0.488 µM | 0.992 | > 1.02 µM | 0.991 | > 10 µM | 0.706 | 0.0552 µM | 0.91 | > 20 µM | 0.989 | > 2 µM | 0.992 | > 1.28 µM | 0.759 | 0.311 µM | 0.964 | > 10.2 µM | 0.968 | > 20 µM |
| TK10 (kidney, adherent) | 0.933 | > 16 µM | 0.573 | 0.518 µM | 0.981 | > 1.02 µM | 0.978 | > 10 µM | 0.481 | 0.014 µM | 0.942 | > 20 µM | 0.975 | > 2 µM | 0.977 | > 1.28 µM | 0.367 | 0.0253 µM | 0.98 | > 10.2 µM | 0.941 | > 20 µM |
| TUR (B-cell lymphoma, suspension) | 0.988 | > 16 µM | 0.513 | 0.338 µM | 0.988 | > 1.02 µM | 0.972 | > 10 µM | 0.62 | 0.0333 µM | 0.954 | > 20 µM | 0.972 | > 2 µM | 0.988 | > 1.28 µM | 0.401 | 0.035 µM | 0.904 | > 10.2 µM | 0.814 | 9.9 µM |
